This is an account of results in US5426104A, “Tricyclic carbapenem compounds, methods of preparation and methods of use” (Glaxo SpA, priority 1991, dated 1995).

Structures are written as SMILES. ≈ marks a conversion by molar mass, not a printed value.

The assay concerns E coli TEM1 1919E. As to the kind of experiment: microbe, parasite or virus in culture. To be noted: 18 h. The protocol: The antibacterial activity of the compounds of the invention may be readily determined using conventional test procedures. For example the antibacterial activity of the compounds of the invention was determined using a standard microtiter broth serial dilution test. In this test the broth was incubated with approximately 10^5 colony forming units of the test organism and incubated at 35° for 18 hours in the presence of test compound. Results obtained using the test procedure are given in the table below and are expressed as minimum inhibitory concentrations (MIC) in micrograms/ml.

Regarding `CN=CN[C@H]1CCC[C@H]2C1=C(C(=O)O)N1C(=O)[C@H]([C@@H](C)O)[C@@H]21` [Example 2, (4 S,8S,9R,10S,12R)-4-[(3'-methyl)formamidino)-10-(1-hydroxyethyl)-11-oxo-1-azatricyclo[7.2.0.0^3.^8]undec-2-ene-2-carboxylic acid], the MIC came out at 1 µg/mL (≈ 3.25 µM).
